# Among all 310,000 compounds or so, about 2,200 (0.71%) showed an effect of 50% or more. Effects have a minus sign here. The list shows a part of the results.
# Molecular target: human ether-à-go-go-related gene (hERG) potassium channel (human, UniProt Q12809)
# Assay: primary screen, population patch clamp on CHO cells stably expressing hERG
# Method: Briefly, Chinese hamster ovary (CHO) cells stably expressing the hERG channel were dislodged from tissue culture flasks and dispensed into PPC plates. […] During the recording, background leak currents were estimated by a 100 ms step to -80 mV from an initial holding potential of -70 mV and subtracted from the subsequent current measurement. The campaign was conducted in two phases using slight differences in recording protocol. In the first phase, the initial voltage pulse used a 100 ms step to -30 mV from a holding potential of -70 mV, a 2 s conditioning step to +25 mV, and a 2 s test step to -30 mV. During the second phase of the screen, the potential during the conditioning step was raised to +45 mV. In both phases of the campaign, a secondary voltage pulse was applied using the same parameters as the second phase initial pulse. The initial and secondary pulses were applied in the absence of compound, and upon application of 1 μM and 10 μM test concentrations. Small molecule effects on hERG current density were quantified by […].
# Sequence of human ether-à-go-go-related gene (hERG) potassium channel (Q12809 whole entry, looked up): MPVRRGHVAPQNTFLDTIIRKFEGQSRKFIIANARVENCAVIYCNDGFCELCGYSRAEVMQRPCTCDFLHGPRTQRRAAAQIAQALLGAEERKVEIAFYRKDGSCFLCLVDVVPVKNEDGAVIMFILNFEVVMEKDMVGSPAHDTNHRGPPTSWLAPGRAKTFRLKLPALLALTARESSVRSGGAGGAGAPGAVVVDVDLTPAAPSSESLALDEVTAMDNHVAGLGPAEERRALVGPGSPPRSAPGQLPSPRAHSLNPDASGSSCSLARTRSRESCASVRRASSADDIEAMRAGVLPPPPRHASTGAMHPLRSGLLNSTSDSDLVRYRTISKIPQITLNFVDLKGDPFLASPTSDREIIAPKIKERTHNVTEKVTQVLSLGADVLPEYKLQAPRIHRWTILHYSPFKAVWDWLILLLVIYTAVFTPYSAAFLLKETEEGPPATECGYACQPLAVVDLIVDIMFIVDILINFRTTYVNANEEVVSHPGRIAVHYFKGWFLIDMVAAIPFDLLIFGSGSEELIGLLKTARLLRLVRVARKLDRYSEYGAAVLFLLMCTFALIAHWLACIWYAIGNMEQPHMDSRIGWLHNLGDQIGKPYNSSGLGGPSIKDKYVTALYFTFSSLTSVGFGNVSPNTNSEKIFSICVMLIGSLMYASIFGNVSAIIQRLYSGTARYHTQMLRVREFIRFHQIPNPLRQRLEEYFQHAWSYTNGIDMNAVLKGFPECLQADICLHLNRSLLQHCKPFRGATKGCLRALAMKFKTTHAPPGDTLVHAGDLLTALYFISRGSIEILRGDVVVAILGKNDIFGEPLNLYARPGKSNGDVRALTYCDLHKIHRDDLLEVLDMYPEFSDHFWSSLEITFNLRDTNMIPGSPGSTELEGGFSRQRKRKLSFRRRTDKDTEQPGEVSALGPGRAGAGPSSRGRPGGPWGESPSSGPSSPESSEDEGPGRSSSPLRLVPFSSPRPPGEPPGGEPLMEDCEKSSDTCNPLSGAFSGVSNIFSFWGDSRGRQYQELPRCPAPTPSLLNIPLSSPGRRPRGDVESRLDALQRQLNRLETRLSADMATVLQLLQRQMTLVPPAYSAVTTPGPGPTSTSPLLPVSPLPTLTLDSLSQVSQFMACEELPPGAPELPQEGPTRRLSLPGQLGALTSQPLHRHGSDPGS
row,SMILES,"hERG current change (%, negative = inhibition) at 1uM [%]"
1,COc1ccc(N2CCN(C(=O)c3cc([N+](=O)[O-])ccc3N3CCN(CCO)CC3)CC2)cc1,-1.2
2,CC(=O)c1c(OC(=O)c2ccccc2)c2ccccc2n1C,2.42
3,COc1ccc(CC(=O)N(C)CC(=O)Nc2ccccc2C(F)(F)F)cc1S(=O)(=O)N1CCOCC1,10.2
4,O=C(Nc1ccccc1)C1=C[C@@H](C2CCCCC2)C[C@@H](OCCCCO)O1,10.1
5,O=C(COc1ccc2ccccc2c1Br)Nc1cccnc1,18.9
6,Cc1ccc(C)c(NS(=O)(=O)c2cc(C(=O)NCc3ccncc3)ccc2C)c1,-5.08
7,COc1cccc(CNC(=O)CCS(=O)(=O)c2ccc3c(c2)NC(=O)C(C)S3)c1 (stereo not shown),18.2
8,Cc1cc(C)cc(NS(=O)(=O)c2cc(Br)cnc2N)c1,17.4
9,CC(Sc1nnc(Cc2ccccc2)o1)C(=O)Nc1ccccc1[N+](=O)[O-] (stereo not shown),10.8
10,CCOc1ccc(CN2CCN(Cc3ccc4cc(F)ccc4n3)CC2CCO)cc1 (stereo not shown),-79.3
11,NC(=O)c1snnc1-c1ccccc1,10.9
12,Cc1ccc2c(c1)C(c1ccccc1)CC(=O)O2 (stereo not shown),7.8
13,NS(=O)(=O)c1cc2c(cc1Cl)NC(Cc1ccccc1)NS2(=O)=O (stereo not shown),7.31
14,COc1ccc(COc2ccccc2C(=O)Nc2ccccn2)cc1[N+](=O)[O-],0.65
15,CC(C)CSc1nc2c(c(=O)[nH]c(=O)n2C)n1CCc1ccccc1,14.1
16,COC(=O)C(=O)Nc1nnc(COc2ccccc2)s1,9.5
17,CCC(=O)c1cn(/C(=C\C(=O)OC(C)(C)C)CCC(OC)OC)cc1CC,8.48
18,Cc1ccc(S(=O)(=O)N2CCCCC2)cc1C(=O)N(C)CC(=O)Nc1cccc(F)c1,-37.5
19,COC(=O)[C@@H](NC(=O)c1ccccc1)[C@@H](C)O,5.85
20,CN(C)c1ccc(N=Nc2cccc3ccoc23)cc1,16.8
21,O=C(NCCC1CCCCN1S(=O)(=O)c1ccccc1)C(=O)Nc1ccccc1 (stereo not shown),10.6
22,Cc1cccc(C)c1-n1nnnc1-c1cnccc1C(F)(F)F,12.2

row,SMILES,"hERG current change (%, negative = inhibition) at 1uM [%]"
1,CCn1cc(C(=O)N[C@H](C(=O)NCCCO)C(C)C)c(=O)c2cc3c(cc21)OCO3,16.2
2,COc1ccccc1-n1c(CNC(=O)COc2ccccc2)n[nH]c1=S,9.94
3,COc1cccc(CNC(=O)Cc2ccc(Br)cc2)c1,13.4
4,O=C(C1CCOCC1)N1CCCC(N2CCN(c3cccc(Cl)c3)CC2)C1 (stereo not shown),1.19
5,CC(OC(=O)c1ccc(S(=O)(=O)N(C)C)cc1)C(=O)Nc1ccc(Cl)cn1 (stereo not shown),6.72
6,CCCn1c(O)c(N=NC(=O)c2cccnc2)c2cc(Br)ccc21,9.2
7,Cc1cc(C)cc(NC(=S)/C(=C(\[O-])c2ccc(Cl)cc2Cl)[n+]2ccc(C(C)(C)C)cc2)c1,9.66
8,Br.O=C1SC(SC(=Nc2ccccc2)Nc2ccccc2)C(=O)N1c1ccccc1 (stereo not shown),15.1
9,CCOC(=O)N1CCN(S(=O)(=O)c2ccc(C(=O)Nc3sc4c(c3C(N)=O)CCN(CC)C4)cc2)CC1,17.3
10,CN(C)C(=O)COc1ccc2ccc(=O)oc2c1,3.48
11,COC(=O)C(O)(c1ccc(N(C)C(=O)COc2ccccc2)cc1)C(F)(F)F (stereo not shown),2.34
12,Cc1nc(N2CCN(S(=O)(=O)c3ccc(F)cc3)CC2)c2c(-c3cccs3)csc2n1,8.75
13,COC(=O)C1(C)NC(c2ccco2)C2C(=O)N(c3ccc(C)cc3)C(=O)C21 (stereo not shown),9.88
14,COc1ccc(-c2[nH]ncc2CN2CCC(c3ccncc3)CC2)cc1F,-51.4
15,O=C(O)COc1ccccc1/C=N/NC(=O)CSc1nnc(SCc2ccc(Cl)cc2)s1,12.1
16,CCCCCCC1CC(=O)NC(=O)N1 (stereo not shown),12.6
17,CCCOc1ccc(N2C(=O)CC(N(CCc3ccc(S(N)(=O)=O)cc3)C(C)=O)C2=O)cc1 (stereo not shown),21.6
18,O=C(CCc1nnc(CCCCc2ccccc2)o1)N1CCCCC1CCO (stereo not shown),10
19,Cc1cc2oc(=O)cc(CN3CCN(Cc4ccc5c(c4)OCO5)CC3)c2cc1C,0.724
20,Cc1ccc(CN2C(=O)CCC2C(=O)NC2CC2)cc1 (stereo not shown),12.7
21,NS(=O)(=O)c1ccc(N2C(=O)C(=O)/C(=C(/O)c3ccccc3)C2c2ccc(Cl)cc2)cc1 (stereo not shown),13.9
22,COc1ccc(C(=O)NCCCOC(=O)c2ccc(OC)cc2)cc1,1.21

row,SMILES,"hERG current change (%, negative = inhibition) at 1uM [%]"
1,CCc1ccc(-c2cc(C(=O)O)c3ccccc3n2)s1,13
2,Cc1ccc2c(c1)N(C(=O)CCC(=O)Nc1ccccc1Cl)CC(C)O2 (stereo not shown),11.6
3,COC(=O)c1ccc(/C=N\N2CCN(Cc3ccc(C)cc3)CC2)cc1,9.94
4,COc1ccc(-[n+]2c(-c3ccccc3)cc(-c3ccc(C)cc3)cc2-c2ccccc2)cc1.[O-][Cl+3]([O-])([O-])[O-],-52
5,CC(=O)c1ccc(Nc2c([N+](=O)[O-])ccc3nonc23)cc1,-0.202
6,Cc1cccc(C(=O)NCC(=O)N2CCN(S(=O)(=O)c3cc(C)ccc3C)CC2)c1,14.5
7,CCC(=O)NC(c1cccs1)c1cc(Cl)c2ccccc2c1O (stereo not shown),-7.75
8,Cc1nnnn1CC(=O)Nc1cccc([N+](=O)[O-])c1,5.71
9,CCn1c(=O)c2cc(C(=O)N(C)c3cc(C)ccc3OC)sc2c2ccccc21,11.8
10,COc1ccc(N2C(=O)CN(Cc3cc(OC)c(OC)c(OC)c3)C2=S)cc1,13.2
11,COc1cc(NC(=O)c2ccccc2OCc2ccccc2)cc(OC)c1OC,20.7
12,Cn1cc(CN2CCN(c3ncccn3)CC2)c(-c2cccc(Cl)c2)n1,-1.8
13,CCN1CCN(Cc2ccccc2NC(=O)Nc2ccc(C)cc2)CC1,7.04
14,Brc1ccc(-c2csc(N/N=C/c3ccc4c(c3)OCO4)n2)cc1,12.9
15,Cc1cccc(OCCNC(=S)NC(=O)c2cccnc2)c1,16.9
16,O=C(CN1CCCCC1)N1c2ccccc2Oc2ccccc21,9.91
17,CCc1nnc(NC(=O)c2ccc(Cl)c(S(=O)(=O)N3CCc4ccccc4C3)c2)s1,11.8
18,COc1ccc(CCn2c(N3CCOCC3)nc3c2c(=O)[nH]c(=O)n3C)cc1,2.83
19,C#CCOCCOCCOCCNc1nc(N2CCN(C(=O)CCCCCCCCCCNC(=O)[C@@H]([C@H](C)O)n3cc(C)nn3)CC2)nc(N2CCN(C(=O)CCCCCCCCCCNC(=O)[C@@H]([C@H](C)O)n3cc(C)nn3)CC2)n1,4.12
20,O=C(NCc1ccccc1)c1ccc(-c2ccccc2C(F)(F)F)o1,5.49
21,O=c1c2ccccc2oc2cc(-c3ccc4[nH]ccc4c3)ccc12,7.99
22,CCc1ccccc1NC(=O)CN(C)S(=O)(=O)c1ccc2c(c1)c(=O)n(C)c(=O)n2C,10.7

row,SMILES,"hERG current change (%, negative = inhibition) at 1uM [%]"
1,O=C(O)CCNc1ccc2c(c1)OCCO2,-11.3
2,CCOC(=O)CCNC(=O)N1CCCC(CNS(=O)(=O)Cc2ccccc2)C1 (stereo not shown),8.76
3,Cc1cc(SCC(=O)OCC(=O)NCc2ccc3c(c2)OCO3)c(C)cc1Br,-13.9
4,Cn1ccnc1SCC(=O)c1ccc(Br)cc1,2.05
5,Cc1nc2ccc(CCO)cc2s1,8.56
6,CC(=O)Oc1cccc(N2C(=O)c3ccccc3C2=O)c1,-7.37
7,CNCCc1c(C)n[nH]c1C.Cl,16.3
8,c1ccc2[nH]c(-c3nc4ccccc4[nH]3)nc2c1,3.07
9,Cc1ccc(CN(C)C(=O)COC(=O)CSc2ccc([N+](=O)[O-])cc2)cc1,8.47
10,COc1ccc(C(=O)C(C)(C)NO)cc1.Cl,12.5
11,CCN1CCN(C(=O)c2cc3ccc(OC)cc3[nH]2)CC1,10.3
12,O=C(Nc1ccccc1)c1c(F)cccc1F,10.4
13,CCCNC(=S)N1CCC(C(=O)c2ccc(OC)cc2)CC1,11.2
14,CCOC(=O)C1=C(C)NC(=O)NC1c1ccc(OC(=O)c2ccco2)c(OC)c1 (stereo not shown),10.1
15,O=S(=O)(Nc1ccc(-c2cnco2)cc1)c1ccccc1,7.72
16,COc1ccc(-n2c(SCC(=O)Nc3cc(C)on3)nc3c(c2=O)SCC3)cc1,16.9
17,Cc1ccc2nc3c(cc2c1)CC1(C(=O)N(C)C(=O)N(C)C1=O)C1COCCN31 (stereo not shown),-11.7
18,CN1CCN(C(=O)c2ccc(-c3cccs3)s2)CC1,9.86
19,CCN1CCN(Cc2ccc(NC(=O)c3cc(NC(=O)c4cnn(-c5ccccc5)c4N)cc(OC)c3)cc2C(F)(F)F)CC1,11.6

# Source: paper PMC4336329 (PLoS ONE, 2015)
